Yeast fitness gain data for four molecules are collected here from the supplement of paper PMC11741623.

The other results are listed elsewhere or left out. Interaction screen of human proteins with wild-type SARS-CoV-2 proteins by split-DHFR complementation in yeast, 1 µg/mL methotrexate. Value = fitness of the pair (three or more lineages) minus that of the viral protein without a human partner, on a scale set by negative (0) and fused positive (1) controls, mean of up to three cultures; higher = more likely to interact. Active = false discovery rate below 0.05 (one-sided t-test) in at least one culture. Nearly all pairs are not hits, and differences among them are mostly noise (correlation between cultures about 0.3); most hits were seen in one culture only. Human sequences are the Swiss-Prot entries looked up by gene name; the clone may be another isoform. NSP2 values were corrected by the authors for a growth advantage. Listed are human proteins with a hit and a random twelfth of the others.

B1: SPACA1, Q9HBV2 (protein)
chain: MSPRGTGCSAGLLMTVGWLLLAGLQSARGTNVTAAVQDAGLAHEGEGEEETENNDSETAENYAPPETEDVSNRNVVKEVEFGMCTVTCGIGVREVILTNGCPGGESKCVVRVEECRGPTDCGWGKPISESLESVRLACIHTSPLNRFKYMWKLLRQDQQSIILVNDSAILEVRKESHPLAFECDTLDNNEIVATIKFTVYTSSELQMRRSSLPATDAALIFVLTIGVIICVFIIFLLIFIIINWAAVKAFWGAKASTPEVQSEQSSVRYKDSTSLDQLPTEMPGEDDALSEWNE
B2: LZTS2, Q9BRK4 (protein)
chain: MAIVQTLPVPLEPAPEAATAPQAPVMGSVSSLISGRPCPGGPAPPRHHGPPGPTFFRQQDGLLRGGYEAQEPLCPAVPPRKAVPVTSFTYINEDFRTESPPSPSSDVEDAREQRAHNAHLRGPPPKLIPVSGKLEKNMEKILIRPTAFKPVLPKPRGAPSLPSFMGPRATGLSGSQGSLTQLFGGPASSSSSSSSSSAADKPLAFSGWASGCPSGTLSDSGRNSLSSLPTYSTGGAEPTTSSPGGHLPSHGSGRGALPGPARGVPTGPSHSDSGRSSSSKSTGSLGGRVAGGLLGSGTRASPDSSSCGERSPPPPPPPPSDEALLHCVLEGKLRDREAELQQLRDSLDENEATMCQAYEERQRHWQREREALREDCAAQAQRAQRAQQLLQLQVFQLQQEKRQLQDDFAQLLQEREQLERRCATLEREQRELGPRLEETKWEVCQKSGEISLLKQQLKESQAELVQKGSELVALRVALREARATLRVSEGRARGLQEAARARELELEACSQELQRHRQEAEQLREKAGQLDAEAAGLREPPVPPATADPFLLAESDEAKVQRAAAGVGGSLRAQVERLRVELQRERRRGEEQRDSFEGERLAWQAEKEQVIRYQKQLQHNYIQMYRRNRQLEQELQQLSLELEARELADLGLAEQAPCICLEEITATEI
B3: NOA1, Q8NC60 (protein)
chain: MLPARLPFRLLSLFLRGSAPTAARHGLREPLLERRCAAASSFQHSSSLGRELPYDPVDTEGFGEGGDMQERFLFPEYILDPEPQPTREKQLQELQQQQEEEERQRQQRREERRQQNLRARSREHPVVGHPDPALPPSGVNCSGCGAELHCQDAGVPGYLPREKFLRTAEADGGLARTVCQRCWLLSHHRRALRLQVSREQYLELVSAALRRPGPSLVLYMVDLLDLPDALLPDLPALVGPKQLIVLGNKVDLLPQDAPGYRQRLRERLWEDCARAGLLLAPGHQGPQRPVKDEPQDGENPNPPNWSRTVVRDVRLISAKTGYGVEELISALQRSWRYRGDVYLVGATNAGKSTLFNTLLESDYCTAKGSEAIDRATISPWPGTTLNLLKFPICNPTPYRMFKRHQRLKKDSTQAEEDLSEQEQNQLNVLKKHGYVVGRVGRTFLYSEEQKDNIPFEFDADSLAFDMENDPVMGTHKSTKQVELTAQDVKDAHWFYDTPGITKENCILNLLTEKEVNIVLPTQSIVPRTFVLKPGMVLFLGAIGRIDFLQGNQSAWFTVVASNILPVHITSLDRADALYQKHAGHTLLQIPMGGKERMAGFPPLVAEDIMLKEGLGASEAVADIKFSSAGWVSVTPNFKDRLHLRGYTPEGTVLTVRPPLLPYIVNIKGQRIKKSVAYKTKKPPSLMYNVRKKKGKINV
B4: PPAP2B, O14495 (protein)
chain: MQNYKYDKAIVPESKNGGSPALNNNPRRSGSKRVLLICLDLFCLFMAGLPFLIIETSTIKPYHRGFYCNDESIKYPLKTGETINDAVLCAVGIVIAILAIITGEFYRIYYLKKSRSTIQNPYVAALYKQVGCFLFGCAISQSFTDIAKVSIGRLRPHFLSVCNPDFSQINCSEGYIQNYRCRGDDSKVQEARKSFFSGHASFSMYTMLYLVLYLQARFTWRGARLLRPLLQFTLIMMAFYTGLSRVSDHKHHPSDVLAGFAQGALVACCIVFFVSDLFKTKTTLSLPAPAIRKEILSPVDIIDRNNHHNMM

One assay has as its target SARS-CoV-2 E. Description: yeast fitness gain over the viral ORF with no human partner (scaled fitness); higher = more likely to interact. The method, then: (§1)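 Split mouse DHFR complementation in pooled diploid yeast: human ORFeome clones carry one fragment and viral ORFs the other; barcoded lineages compete in 1 µg/mL methotrexate and fitness is read by barcode sequencing in up to three cultures.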
As for B1, the yeast fitness gain is inactive: -0.186.
On the same count and under the same terms, the same measure for B2: inactive: -0.111; for B3: inactive: -0.175.
Still for that read-out and setting: the same measure for B4: inactive: -0.0442.

Another assay concerns the target SARS-CoV-2 M. Described as above. The method, then: as §1
Take B1: the yeast fitness gain is inactive: 0.0367.
Same read-out and setting: the same measure for B2: inactive: -0.0917; for B3: inactive: 0.0685.
Same read-out and setting: the same measure for B4: inactive: -0.112.

The target in a further assay is SARS-CoV-2 NSP1. The description is as above. How it is done: as §1
For B1, the yeast fitness gain was inactive: 0.00656.
Turning to B3, the yeast fitness gain is inactive: -0.181.
Still for that read-out and setting: the same measure for B4: inactive: -0.000347.

The target of a further assay is SARS-CoV-2 NSP10. The assay is described as above. How it is done: as §1
For B1, the yeast fitness gain is inactive: -0.0224.
Same read-out and setting: under B2 stands inactive: -0.191.
Still for that read-out and setting: under B3 stands inactive: -0.0444; under B4, inactive: -0.0413.

The target in another assay is SARS-CoV-2 NSP12. The assay is described as above. How it is done: as §1
Turning to B1, the yeast fitness gain is inactive: 0.0747.
Consider B3, for which the yeast fitness gain is inactive: 0.0343.
In the case of B4, the yeast fitness gain is inactive: -0.0141.

The target in the next assay is SARS-CoV-2 NSP13. The description is as above. The method, then:
as §1
Regarding B1, the yeast fitness gain is inactive: 0.0633.
On the same count and under the same terms, the same measure for B2: inactive: -0.222; for B3: inactive: 0.019.
On the same count and under the same terms, under B4 stands inactive: -0.0254.

The target of another assay is SARS-CoV-2 NSP14. The assay is described as above. How it is done:
as §1
As for B1, the yeast fitness gain was inactive: 0.0661.
On the same count and under the same terms, the same measure for B3: inactive: 0.0348; for B4: inactive: 0.0962.

A further assay has as its target SARS-CoV-2 NSP16. Described as above. The method, then: as §1
With B1, the yeast fitness gain is inactive: -0.0159.
Still for that read-out and setting: under B2 stands inactive: -0.0229; under B3, inactive: -0.0143.
Still for that read-out and setting: under B4 stands inactive: 0.0753.

The target in the next assay is SARS-CoV-2 NSP2. Described as above. The method, then: as §1
For the molecule B1, the yeast fitness gain was inactive: -0.0166.
Turning to B2, the yeast fitness gain is inactive: -0.143.
Consider B3, for which the yeast fitness gain was inactive: -0.115.
Still for that read-out and setting: under B4 stands inactive: -0.21.

The target of the next assay is SARS-CoV-2 NSP4. The description is as above. The method, then: as §1
With B1, the yeast fitness gain was inactive: -0.0345.
Same read-out and setting: under B3 stands inactive: -0.00621; under B4, inactive: 0.06.

The target in a further assay is SARS-CoV-2 NSP5. The assay is described as above. How it is done: as §1
As for B1, the yeast fitness gain is inactive: 0.0338.
The same measure, in the same setting: the same measure for B2: inactive: -0.107; for B3: inactive: 0.014; for B4: inactive: -0.0216.

Another assay concerns the target SARS-CoV-2 NSP6. The assay is described as above. The method, then: as §1
Take B1: the yeast fitness gain is inactive: -0.0148.
The same measure, in the same setting: the same measure for B3: inactive: -0.000499.
Consider B4, for which the yeast fitness gain was inactive: 0.00608.

In a further assay the target is SARS-CoV-2 NSP7. Described as above. How it is done: as §1
In the case of B1, the yeast fitness gain was inactive: 0.0189.
The same measure, in the same setting: the same measure for B2: inactive: -0.156.
Still for that read-out and setting: under B3 stands inactive: 0.0487.
The same measure, in the same setting: the same measure for B4: inactive: 0.0395.

The target in another assay is SARS-CoV-2 NSP8. Described as above. The method, then: as §1
With B1, the yeast fitness gain is inactive: 0.0113.
The same measure, in the same setting: under B2 stands inactive: -0.136; under B3, inactive: 0.0888.
Same read-out and setting: under B4 stands inactive: -0.0527.

For another assay, the target named is SARS-CoV-2 NSP9. The description is as above. How it is done:
as §1
Regarding B1, the yeast fitness gain was inactive: 0.0982.
For B3, the yeast fitness gain is inactive: 0.0308.
Still for that read-out and setting: the same measure for B4: inactive: 0.0431.

For the next assay, the target named is SARS-CoV-2 ORF10. The assay is described as above. The method, then:
as §1
B1: the yeast fitness gain is inactive: -0.0566.
For the molecule B3, the yeast fitness gain was inactive: -0.0607.
Same read-out and setting: the same measure for B4: inactive: -0.0161.

Another assay addresses SARS-CoV-2 ORF3B. The assay is described as above. The method, then: as §1
Consider B1, for which the yeast fitness gain is inactive: -0.0649.
Turning to B3, the yeast fitness gain was inactive: -0.0347.
The same measure, in the same setting: under B4 stands inactive: -0.0378.

Another assay has as its target SARS-CoV-2 ORF6. Described as above. The method, then: as §1
Consider B1, for which the yeast fitness gain was inactive: -0.018.
The same measure, in the same setting: under B3 stands inactive: 0.0873.
Same read-out and setting: the same measure for B4: inactive: 0.0364.

The target in another assay is SARS-CoV-2 ORF7A. The description is as above. The method, then: as §1
For the molecule B1, the yeast fitness gain was inactive: -0.0143.
Still for that read-out and setting: the same measure for B2: inactive: 0.0121; for B3: inactive: -0.0249.
Take B4: the yeast fitness gain is inactive: 0.114.

For another assay, the target named is SARS-CoV-2 ORF7B. The assay is described as above. The method, then:
as §1
Regarding B1, the yeast fitness gain is inactive: 0.0309.
Still for that read-out and setting: under B2 stands inactive: -0.119; under B3, inactive: 0.0103; under B4, inactive: 0.123.

Another assay concerns the target SARS-CoV-2 ORF8. Described as above. How it is done:
as §1
B1: the yeast fitness gain was inactive: 0.0551.
The same measure, in the same setting: the same measure for B2: inactive: -0.2; for B3: inactive: -0.0406.
Same read-out and setting: the same measure for B4: inactive: -0.0224.

The next assay has as its target SARS-CoV-2 ORF9B. The assay is described as above. The method, then: as §1
With B1, the yeast fitness gain is inactive: 0.0895.
Consider B2, for which the yeast fitness gain is inactive: -0.113.
Still for that read-out and setting: the same measure for B3: inactive: 0.0758; for B4: inactive: -0.0294.

Another assay has as its target SARS-CoV-2 ORF9Bwu (the 73-codon ORF). The assay is described as above. The method, then: as §1
Turning to B1, the yeast fitness gain is inactive: 0.0743.
Still for that read-out and setting: under B3 stands inactive: 0.0403; under B4, inactive: 0.00373.

A further assay has as its target SARS-CoV-2 S. The assay is described as above. The method, then:
as §1
B1: the yeast fitness gain was inactive: 0.0635.
For the molecule B2, the yeast fitness gain was inactive: -0.000562.
As for B3, the yeast fitness gain was inactive: 0.00685.
The same measure, in the same setting: under B4 stands inactive: 0.0425.

The next assay concerns the target SARS-CoV-2 N. The assay is described as above. How it is done: as §1
In the case of B3, the yeast fitness gain was inactive: -0.0119.
On the same count and under the same terms, under B4 stands inactive: 0.0163.

A further assay concerns the target SARS-CoV-2 NSP15. Described as above. How it is done:
as §1
Turning to B4, the yeast fitness gain is inactive: -0.0736.

A further assay has as its target SARS-CoV-2 ORF3A. The assay is described as above. How it is done:
as §1
Regarding B4, the yeast fitness gain is inactive: 0.0542.
